Measured values reported in ChEMBL document CHEMBL1157539, “Thousands of chemical starting points for antimalarial lead identification” (Nature, 2010).
In all, about 13,000 compounds were measured (“IFI”: median about 4, highest 2% from about 17 on). This is one part of the list.

Experiment: GSK_TCMDC: Inhibition Frequency Index (IFI). The number of non-kinase HTS assays where a compound showed > 50 % inhibition, expressed as a percentage of the number of such assays in which the compound was tested (-0 is zero)
Assay type: functional

Row | Compound | IFI [%]
1 | COc1cc(NCCCNC(=O)c2cc3c(Cl)cc(Cl)cc3[nH]2)nc2ccccc12 | 14.2
2 | CC(C)CCN1CCCN(Cc2ccc(C(=O)Nc3ccc(Cl)cc3)cc2)CC1 | 10
3 | CN(C)c1ccc(NC(=O)Nc2ccnc3ccccc23)cc1Br | 6.61
4 | Clc1cc(Nc2ccnc3ccc(Br)cc23)ccc1Oc1ccc(Cl)c2ccccc12 | 0
5 | CCOC(=O)C1=C(C)NC2=C(C(=O)CC(C)(C)C2)C1c1ccc(Br)cc1 (stereo unspecified) | 1.57
6 | Cn1ccnc1CNC(=O)c1ccc(-c2cccc(-c3nc4cc(F)ccc4[nH]3)c2)cc1 | 4.63
7 | CCCC(CNCc1cccc(OC(F)(F)C(F)F)c1)CNc1cc(=O)c2ccccc2[nH]1 (stereo unspecified) | 2.86
8 | Oc1ccc(Nc2nc(N3CCCC3)c3ccccc3n2)cc1 | 9.09
9 | Cc1nc(N)nc(N)c1-c1ccc2ccccc2c1 | 2.21
10 | N=C1c2ccccc2CN1CC(=O)c1ccc(Cl)c(Cl)c1 | 1.39
11 | Oc1cc(NCc2ccccc2NCc2ccc(Cl)c(Cl)c2)nc2ccccc12 | 9.02
12 | OC1CCCN(Cc2cccc(-c3ccc(-c4nc5cc(F)ccc5[nH]4)cc3)c2)C1 (stereo unspecified) | -0
13 | Nc1ncc(-c2ccc(Cl)c(Cl)c2)c(N)n1 | 1.49
14 | Cc1ccc(Nc2nccc(Nc3ccc4c(c3)nc(Nc3cc(C(C)(C)C)on3)n4C)n2)cc1S(C)(=O)=O | 7.63
15 | COc1ccc2nccc([C@@H](O)CN3CCC(NCc4ccc5c(c4)OCCO5)CC3)c2c1 | 6.06
16 | COc1ccc(C2C(C(=O)OC3CCCCC3)=C(C)NC3=C2C(=O)CCC3)cc1Br (stereo unspecified) | 4.76
17 | CCCn1c(Sc2ccc(C#N)c([N+](=O)[O-])c2)nnc1-c1cc(OC)cc(OC)c1 | 3.5
18 | COc1c(C2CCN(CCCCNC(=O)c3ccc(-c4ccc(C#N)cc4)cc3)CC2)cc(Cl)c2c1CCCC2 | 9.52
19 | Cc1nc2nc(N)nc(N)c2c(C)c1Cc1cccc(C(F)(F)F)c1 | 2.19
20 | NCC1CCCN1Cc1cccc(-c2ccc(-c3nc4ccccc4[nH]3)s2)c1 (stereo unspecified) | 0.97
21 | O=C(NC1CC1)c1ccc(N2CCN(Cc3ccc(Cl)cc3)CC2)nc1 | 2.04
22 | CC(C)c1ccc(NS(=O)(=O)c2cccc(C(=O)NC3CCN(CC4CCCCC4)CC3)c2)cc1 | 1.71
23 | CCNCc1ccc(-c2cccc(-c3nc4ccccc4[nH]3)c2)cc1 | 2.91

Row | Compound | IFI [%]
24 | CCc1ccc(NC(=O)c2ccc(CN3CCCN(Cc4cccc(C)c4)CC3)cc2)cc1 | 12.3
25 | O=C(Cc1ccc[n+]([O-])c1)Nc1cccc(-c2cccc(-c3nc4cc(F)ccc4[nH]3)c2)c1 | 3.67
26 | COc1c(C2CCN(CCCCNC(=O)c3ccc(-c4ccc(Cl)cc4)cc3)CC2)ccc2c1C(C)(C)CCC2(C)C | 6.82
27 | Cc1cccc2nc(-c3cccc(-c4ccc(CN5CCCC5CN)cc4)c3)[nH]c12 (stereo unspecified) | 8
28 | N#Cc1ccc(-c2ccc(OCC(O)CN3CCCN(Cc4cccc(O)c4Cl)CC3)cc2)cc1 (stereo unspecified) | 7.63
29 | C=CC(=O)Nc1ccc(Cl)cc1C(O)c1ccccc1 (stereo unspecified) | 1.41
30 | Cc1[nH]c(C)c(Cc2ccc(Oc3ccc(OC(F)(F)F)cc3)cc2)c(=O)c1Br | 5.66
31 | COc1ccc(CN(C)CCOc2ccc(NC(=O)c3cccc4c(=O)cc(-c5ccccc5)[nH]c34)cc2)cc1OC | 5.84
32 | CCN(CC)CCN(Cc1ccc(-c2ccc(C(F)(F)F)cc2)cc1)C(=O)Cn1c(SCc2ccc(F)cc2)nc(=O)c2sccc21 | 5.07
33 | Cc1cc(C(F)(F)F)n2nc(C3CCN(Cc4cc(C)c(O)c(C)c4)C3)cc2n1 (stereo unspecified) | 4.65
34 | CNCCNCc1ccc(-c2ccc(-c3nc4cccc(C)c4[nH]3)cc2)cc1 | 12.9
35 | COc1ccc(S(=O)(=O)NCC2CCCN(CCCCCNC(=O)/C=C/c3ccc(Cl)c(Cl)c3)C2)cc1 (stereo unspecified) | 9.22
36 | COc1c(OC)c(OC)c2ccccc2c1CCNCCCCNCCc1c(OC)c(OC)c(OC)c2ccccc12 | 18.3
37 | CC(C)CCNc1nc(NCCc2ccccc2)c2cc(O)ccc2n1 | 9.56
38 | O=C(Nc1cccc(CN2CCCN(Cc3ccc(O)cc3)CC2)c1)c1cccc(F)c1 | 0.68
39 | CCN(CCCN1CCCCC1)c1cc(C)nc(Nc2ccc(F)c(C(F)(F)F)c2)n1 | 6.33
40 | O=C(Nc1ccc(OCc2ccccc2)cc1)c1nc2ccccc2nc1Cl | -0
41 | CN1CCN(c2ccnc3ccc(NC(=O)Nc4cccc(C#N)c4)cc23)CC1 | 1.41
42 | CN(C(=O)C1(c2ccc(Cl)cc2)CC1)C1CCN(CCCCCNC(=O)/C=C/c2ccc(Cl)c(Cl)c2)CC1 | 10.9
43 | c1ccc(Oc2ccc(Nc3ccnc4cc(-c5ccc(CN6CCOCC6)o5)ccc34)cc2)nc1 | 6.43
44 | CC(C)(C)c1ccc(S(=O)(=O)Nc2ccccc2Cn2nc(N3CCNCC3)ccc2=O)cc1 | 2.07
45 | O=C(Nc1ccc(-c2ccccc2)cc1)Nc1cccc(Cn2ncc(N3CCNCC3)c(Cl)c2=O)c1 | 8.22
46 | CCNCc1cccc(-c2ccc3ccnc(N)c3c2)c1 | 3.77

Row | Compound | IFI [%]
47 | Cc1cc(C2CCN(CCCCNC(=O)c3ccc(NC(=O)c4ccc(Cl)cc4)cc3)CC2)c(C)cc1OCc1ccccn1 | 1.52
48 | Cc1ccc(C2=NNC3(S2)C(=O)N(C)c2ccccc23)cc1 (stereo unspecified) | 5.04
49 | CCCCCCCN(Cc1ccc(OC(C)(C)C(=O)OCC)cc1)C(=O)Nc1ccccc1OCC | 0.74
50 | C=CCn1c(Cc2ccccc2)nnc1Sc1ccc(C#N)c([N+](=O)[O-])c1 | 2.11
51 | COc1ccc(-c2cnc(NCc3ccccc3)nc2)cc1CNC1CCN(C)CC1 | 6.94
52 | Nc1c(Cl)cc(C(O)CNCCCCCOCCCc2ccc(O)c3ncccc23)cc1Cl (stereo unspecified) | 15.6
53 | FC(F)(F)c1ccc2[nH]c(-c3ccc(-c4cccc(CNCCN5CCNCC5)c4)cc3)nc2c1 | 10.7
54 | O=C(/C=C/c1ccc(Cl)c(Cl)c1)NCCCCCCN1CCN(C(=O)Nc2ccc(F)c(Cl)c2)CC1 | 8.8
55 | Cc1cc(=O)[nH]c(-n2nc(C)cc2NC(=O)C(c2ccccc2)c2ccccc2)n1 | 10.4
56 | CN(C)/C(=N/C(=N)Nc1ccc(Cl)cc1)NCCCCCCN/C(=N\C(=N)Nc1ccc(Cl)cc1)N(C)C | 8.89
57 | COc1ccc(C=Cc2cc(=N)c3ccccc3[nH]2)cc1 | 7.59
58 | COc1cccc(Nc2nc(C)cc(NC3CCCC3)n2)c1 | 14.7
59 | CC(Sc1nnc(-c2cccs2)[nH]1)C(=O)c1c[nH]c2ccccc12 (stereo unspecified) | 1.92
60 | CS(=O)(=O)CCNCc1ccc(-c2ccc3c(Nc4ccc(F)cc4Cl)ccnc3c2)o1 | 10.1
61 | CN1CCC(N(Cc2ccc(-c3ccc(C(F)(F)F)cc3)nc2)C(=O)Cn2c(CCc3cccc(F)c3F)cc(=O)c3ccccc32)CC1 | 9.7
62 | CCCC(=O)c1cnc2c(Oc3cc(Cl)ncn3)cccc2c1Nc1ccccc1C | 3.55
63 | COc1ccc(C2(CNCC(O)c3cccc([N+](=O)[O-])c3)CCCC2)cc1OC (stereo unspecified) | 0.7
64 | CS(=O)(=O)CCNCc1cccc(-c2ccc3c(Nc4ccc(Oc5cccnc5)cc4)ccnc3c2)c1 | 6.06
65 | COc1ccc2nccc(N(C)CC3(O)CCN(CCc4ccc5c(c4)OCCO5)CC3)c2n1 | 1.44
66 | CCn1c2c(c(=N)c3ccccc31)CCC2 | 0.75
67 | CC(Cc1ccc(NC(=O)c2ccc(CNCCCCc3ccccc3)cc2)cc1)NCCc1cccc(Cl)c1 (stereo unspecified) | 9.15
68 | O=C(NC1CCN(Cc2ccccc2)CC1)c1cccc(Nc2nc(-c3ccccc3)cs2)c1 | 10.1
69 | CCCCN1C(=N)NC(c2ccccc2)(c2ccccc2)C1=O | 1.9

Row | Compound | IFI [%]
70 | NC1=NC2(CCCC2)C(c2ccc(Cl)c(Cl)c2)C(N)=N1 (stereo unspecified) | 0.76
71 | O=C(N[C@H]1CCN(Cc2ccc(OC3CCN(Cc4ccccc4)CC3)cc2)C1)c1ccc(Cl)c(Cl)c1 | 10
72 | O=C1COc2ccc(S(=O)(=O)N3CCC[C@@H]3CCN3CCC(c4c[nH]c5cnccc45)CC3)cc2N1 | 1.48
73 | Cc1cc(NCCCN2CCCC2=O)n2c(nc3ccccc32)c1C#N | 0.85
74 | CC(C)Cc1cn(-c2nc(-c3nc4ccccc4[nH]3)cs2)c2ccncc12 | 4.94
75 | Cc1ccc(CN2CCN(Cc3cccc(NC(=O)c4cccs4)c3)CC2)cc1C | 3.1
76 | COc1ccc(Nc2nc(NN=Cc3cc(Br)c(O)cc3O)nc(Nc3ccc([N+](=O)[O-])cc3)n2)cc1 | 7.91
77 | CC(C)(C)Oc1ccc(NC(=O)c2ccccc2O)cc1 | 0.74
78 | CN(C)c1nc2cc(-n3cnc4cc(-c5ccc(Cl)cc5)sc4c3=O)ccc2n1CCCN1CCCCC1 | 13.2
79 | CCN(CC)CCNC(=O)c1ccc(NC(=O)c2cc3c(C)nn(-c4ccc(Cl)cc4)c3s2)cc1 | 6.38
80 | C#CCN(Cc1ccc2[nH]c(N)nc(=O)c2c1)c1ccc(C(=O)N[C@@H](CCC(=O)O)C(=O)O)cc1 | 3.65
81 | Cc1cccc2nc(-c3cccc(-c4ccc(NC(=O)COc5ccccc5C(N)=O)cc4)c3)[nH]c12 | 4.39
82 | CC(C)CN(C)c1ncnc2c1nc(-c1cncc(C#N)c1)n2CCNCc1ccccc1 | 0.95
83 | CCCCCCCNc1cc(C)nc2ccc(OC)cc12 | 7.3
84 | COc1cc(-c2nc(C(C)(C)CN)[nH]c2-c2ccncc2)ccc1Br | 2.17
85 | CC[C@H]1CN(Cc2ccccc2Br)CC[C@H]1CCCc1ccnc2ccc(O)cc12 | 7.04
86 | O=C(c1cccc(Cl)c1)N1CCN(c2ccc([N+](=O)[O-])c(NC3CC3)c2)CC1 | 2.9
87 | c1ccc(-n2ncc(CNCc3ccc(-c4ccc(-c5nc6ccccc6[nH]5)s4)cc3)n2)cc1 | 9.68
88 | CC(=O)Nc1ccc(CN2CCc3ccc(NS(=O)(=O)c4ccc(-c5cccc(C(F)(F)F)c5)cc4)cc3CC2)s1 | 7.14
89 | C[C@@H]([C@@H](CCCc1ccc(Cl)cc1)C(=O)N[C@H](C(=O)Nc1cccnc1)C(C)(C)C)N(O)C=O | 1.48
90 | O=C(Nc1ccccc1)Nc1ccc(-c2cccc(-c3nc4cc(C(F)(F)F)ccc4[nH]3)c2)cc1 | 7
91 | COCCNCc1ccc(-c2ccc3c(Nc4ccc(F)cc4Cl)ccnc3c2)o1 | 11.6
